No constants are given. Whether binding was seen depends on the method and setting. In cells and extracts the contact can be indirect. Some entries that bind do so weakly or less than the wild type.
What was measured:
[1] = molecular target: FLAG-tagged Smurf2-C716A (human) (UniProt Q9HAU4); test: co-IP; MCF-7 cells transfected with FLAG/Smurf1-C699A or FLAG/Smurf2-C716A and HA/ERK1 or HA/ERK2; anti-Flag IP and immunoblot; lysis buffer TNTE 0.5% (50 mM Tris-HCl pH 7.5, 150 mM NaCl, 1 mM EDTA, 0.5% Triton X-100)
[2] = molecular target: FLAG-tagged Smurf1-C699A (human) (UniProt Q9HCE7); test: as above
FLAG/Smurf1-WT (human) = FLAG/Smurf1-WT (human) (UniProt Q9HCE7); test: co-IP; MCF-7 cells transfected with FLAG/Smurf1 (WT, T223A or T223D) and HA/RhoA N19; anti-Flag IP and immunoblot; with or without TGFβ for 2 h, with or without 5 μM U0126 pretreatment for 2 h
[3] = molecular target: FLAG/Smurf1-T223D (human) (UniProt Q9HCE7); test: as above
Flag-tagged ERK2 (human) = Flag-tagged ERK2 (human) (UniProt P28482); test: co-IP; lysates of MCF-7 cells expressing Flag-ERK2; anti-FLAG IP, immunoblot for endogenous Smurf1
[4] = molecular target: GST/Smurf1-WT phosphorylated by ERK2-R67S (human) (UniProt Q9HCE7); test: pull-down; GST/Smurf1-WT or GST/Smurf1-T223A purified from bacteria, incubated with ERK2-R67S for kinase assay, then GST pull-down with RhoA N19, immunoblot; source of RhoA N19 not told

Protein sequences, listed by entry. Tags and fused reporters are not part of them. Lines headed by an entry give the natural chain unless they say otherwise; changes in a name come on top. Chains listed by the source or under a name are the forms on record and can include a tag or linker.
UniProt Q9HAU4: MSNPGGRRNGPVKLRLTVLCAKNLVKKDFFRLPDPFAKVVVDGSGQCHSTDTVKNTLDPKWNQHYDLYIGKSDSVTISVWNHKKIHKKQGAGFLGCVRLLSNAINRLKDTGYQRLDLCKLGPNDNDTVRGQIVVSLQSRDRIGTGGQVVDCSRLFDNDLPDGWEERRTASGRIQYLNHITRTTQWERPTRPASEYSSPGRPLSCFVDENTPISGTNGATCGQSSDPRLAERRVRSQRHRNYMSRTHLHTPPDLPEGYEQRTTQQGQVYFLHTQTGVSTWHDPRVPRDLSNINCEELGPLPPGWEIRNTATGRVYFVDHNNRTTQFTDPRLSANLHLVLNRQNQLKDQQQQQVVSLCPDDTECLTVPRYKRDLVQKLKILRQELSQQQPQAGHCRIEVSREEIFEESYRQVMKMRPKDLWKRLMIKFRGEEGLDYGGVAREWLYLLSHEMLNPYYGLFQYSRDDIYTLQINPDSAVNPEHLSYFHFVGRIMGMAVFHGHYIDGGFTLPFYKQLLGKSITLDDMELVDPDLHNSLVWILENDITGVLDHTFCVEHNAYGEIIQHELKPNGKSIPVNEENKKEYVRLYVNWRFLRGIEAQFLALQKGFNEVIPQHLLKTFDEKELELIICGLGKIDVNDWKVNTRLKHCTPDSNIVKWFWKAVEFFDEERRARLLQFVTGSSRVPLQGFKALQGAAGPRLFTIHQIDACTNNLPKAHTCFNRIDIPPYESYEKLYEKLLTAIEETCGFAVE
UniProt Q9HCE7: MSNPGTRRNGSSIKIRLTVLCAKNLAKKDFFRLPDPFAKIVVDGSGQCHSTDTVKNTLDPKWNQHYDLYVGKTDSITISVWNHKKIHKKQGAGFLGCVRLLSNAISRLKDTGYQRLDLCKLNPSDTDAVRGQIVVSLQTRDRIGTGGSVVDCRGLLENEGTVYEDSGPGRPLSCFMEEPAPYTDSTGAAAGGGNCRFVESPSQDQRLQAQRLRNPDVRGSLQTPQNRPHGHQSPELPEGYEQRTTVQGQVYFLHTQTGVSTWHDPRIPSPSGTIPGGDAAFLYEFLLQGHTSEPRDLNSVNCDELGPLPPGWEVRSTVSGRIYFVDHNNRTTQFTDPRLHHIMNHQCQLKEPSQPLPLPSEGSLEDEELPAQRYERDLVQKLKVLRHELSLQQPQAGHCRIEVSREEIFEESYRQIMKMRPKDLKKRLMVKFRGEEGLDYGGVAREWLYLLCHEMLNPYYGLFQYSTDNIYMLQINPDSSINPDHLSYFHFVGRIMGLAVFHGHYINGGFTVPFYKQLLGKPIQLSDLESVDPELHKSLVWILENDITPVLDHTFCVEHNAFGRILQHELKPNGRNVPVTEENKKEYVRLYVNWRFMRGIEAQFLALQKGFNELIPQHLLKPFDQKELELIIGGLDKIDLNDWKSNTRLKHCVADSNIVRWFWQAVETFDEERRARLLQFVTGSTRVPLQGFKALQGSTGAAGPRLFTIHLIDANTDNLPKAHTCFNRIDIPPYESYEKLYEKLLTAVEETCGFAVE
FLAG-tagged Smurf1-C699A (Q9HCE7, form named): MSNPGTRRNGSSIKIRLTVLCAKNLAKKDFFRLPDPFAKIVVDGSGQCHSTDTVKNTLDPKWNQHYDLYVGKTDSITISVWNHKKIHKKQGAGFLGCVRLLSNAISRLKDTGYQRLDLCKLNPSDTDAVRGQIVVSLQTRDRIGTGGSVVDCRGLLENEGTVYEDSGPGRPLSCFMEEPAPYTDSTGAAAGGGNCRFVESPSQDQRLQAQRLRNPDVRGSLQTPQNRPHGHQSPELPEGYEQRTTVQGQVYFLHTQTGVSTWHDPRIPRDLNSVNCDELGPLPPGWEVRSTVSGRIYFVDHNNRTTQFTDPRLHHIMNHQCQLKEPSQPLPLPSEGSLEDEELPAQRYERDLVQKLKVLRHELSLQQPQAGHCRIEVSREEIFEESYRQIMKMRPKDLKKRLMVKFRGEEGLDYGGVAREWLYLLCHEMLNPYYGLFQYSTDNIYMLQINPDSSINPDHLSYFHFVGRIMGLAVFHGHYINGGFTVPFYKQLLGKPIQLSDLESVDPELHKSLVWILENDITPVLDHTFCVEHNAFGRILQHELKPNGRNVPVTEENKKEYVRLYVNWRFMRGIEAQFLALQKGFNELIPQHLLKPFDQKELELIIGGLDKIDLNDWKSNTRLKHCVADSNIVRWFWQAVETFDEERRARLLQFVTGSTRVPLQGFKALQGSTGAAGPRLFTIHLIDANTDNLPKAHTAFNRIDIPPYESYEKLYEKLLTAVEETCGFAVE
GST/Smurf1-WT phosphorylated by ERK2-R67S (Q9HCE7, form named): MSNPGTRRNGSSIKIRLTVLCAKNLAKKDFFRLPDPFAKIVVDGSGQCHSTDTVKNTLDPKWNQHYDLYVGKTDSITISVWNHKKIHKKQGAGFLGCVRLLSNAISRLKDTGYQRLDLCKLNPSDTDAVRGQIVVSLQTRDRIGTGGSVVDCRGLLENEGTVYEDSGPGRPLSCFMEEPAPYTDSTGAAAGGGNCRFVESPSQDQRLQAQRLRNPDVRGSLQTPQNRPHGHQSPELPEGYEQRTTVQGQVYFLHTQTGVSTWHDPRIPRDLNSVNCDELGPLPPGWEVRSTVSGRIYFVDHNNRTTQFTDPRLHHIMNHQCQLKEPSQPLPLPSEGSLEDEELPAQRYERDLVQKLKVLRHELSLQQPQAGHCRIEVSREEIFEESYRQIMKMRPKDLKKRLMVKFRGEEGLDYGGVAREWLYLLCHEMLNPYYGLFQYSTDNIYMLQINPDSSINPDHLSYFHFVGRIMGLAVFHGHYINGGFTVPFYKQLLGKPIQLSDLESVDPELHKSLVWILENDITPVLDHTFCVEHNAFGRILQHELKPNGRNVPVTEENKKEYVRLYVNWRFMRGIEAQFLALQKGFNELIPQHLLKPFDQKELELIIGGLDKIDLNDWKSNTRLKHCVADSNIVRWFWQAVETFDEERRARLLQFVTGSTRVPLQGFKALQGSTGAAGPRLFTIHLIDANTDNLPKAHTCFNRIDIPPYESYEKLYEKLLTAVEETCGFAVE
FLAG/Smurf1-T223D (Q9HCE7, form named): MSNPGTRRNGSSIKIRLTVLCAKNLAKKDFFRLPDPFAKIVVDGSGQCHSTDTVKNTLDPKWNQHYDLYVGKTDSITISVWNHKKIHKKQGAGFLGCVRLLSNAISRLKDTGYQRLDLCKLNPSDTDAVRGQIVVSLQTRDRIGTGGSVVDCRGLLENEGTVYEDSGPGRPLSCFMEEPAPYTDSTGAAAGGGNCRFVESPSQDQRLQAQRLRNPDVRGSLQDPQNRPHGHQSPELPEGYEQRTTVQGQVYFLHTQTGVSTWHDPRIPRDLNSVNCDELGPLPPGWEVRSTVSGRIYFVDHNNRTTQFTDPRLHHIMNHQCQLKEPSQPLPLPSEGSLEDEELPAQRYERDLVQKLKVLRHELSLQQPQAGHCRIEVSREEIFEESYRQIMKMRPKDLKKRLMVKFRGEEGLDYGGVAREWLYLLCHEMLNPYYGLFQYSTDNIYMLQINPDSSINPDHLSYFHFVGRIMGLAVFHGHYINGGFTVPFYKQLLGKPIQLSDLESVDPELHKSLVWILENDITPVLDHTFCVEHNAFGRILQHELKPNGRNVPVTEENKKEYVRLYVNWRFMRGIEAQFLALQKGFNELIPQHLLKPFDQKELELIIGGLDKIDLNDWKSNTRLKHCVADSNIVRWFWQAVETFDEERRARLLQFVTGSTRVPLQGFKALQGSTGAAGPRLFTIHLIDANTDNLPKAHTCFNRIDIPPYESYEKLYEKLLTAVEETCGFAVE
UniProt P28482: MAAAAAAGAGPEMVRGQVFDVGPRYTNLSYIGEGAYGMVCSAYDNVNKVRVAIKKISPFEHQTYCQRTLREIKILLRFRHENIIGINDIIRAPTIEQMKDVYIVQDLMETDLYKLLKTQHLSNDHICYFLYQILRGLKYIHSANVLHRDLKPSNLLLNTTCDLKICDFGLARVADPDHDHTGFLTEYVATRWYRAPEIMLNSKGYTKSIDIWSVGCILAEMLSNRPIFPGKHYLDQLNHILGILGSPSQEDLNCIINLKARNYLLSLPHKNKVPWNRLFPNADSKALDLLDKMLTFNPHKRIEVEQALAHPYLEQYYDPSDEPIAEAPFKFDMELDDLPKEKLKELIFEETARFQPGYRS
UniProt P27361: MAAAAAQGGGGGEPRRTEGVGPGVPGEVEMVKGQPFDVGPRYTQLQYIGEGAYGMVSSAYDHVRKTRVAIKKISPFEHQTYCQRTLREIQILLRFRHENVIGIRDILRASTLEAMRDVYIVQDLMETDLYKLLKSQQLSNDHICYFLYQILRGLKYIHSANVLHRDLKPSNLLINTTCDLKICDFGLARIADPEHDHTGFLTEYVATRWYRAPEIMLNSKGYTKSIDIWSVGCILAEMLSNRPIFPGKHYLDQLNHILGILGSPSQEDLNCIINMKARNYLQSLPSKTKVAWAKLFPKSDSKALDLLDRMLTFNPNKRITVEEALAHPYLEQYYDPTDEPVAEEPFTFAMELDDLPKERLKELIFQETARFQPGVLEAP
UniProt P61586: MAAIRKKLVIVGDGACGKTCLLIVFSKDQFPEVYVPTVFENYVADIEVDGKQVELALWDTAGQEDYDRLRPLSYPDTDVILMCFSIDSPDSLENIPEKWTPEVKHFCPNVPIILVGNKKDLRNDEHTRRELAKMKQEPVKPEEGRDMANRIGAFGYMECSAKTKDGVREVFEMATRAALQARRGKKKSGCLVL
RhoA N19 (used in the GST pull-down) (P61586, form named): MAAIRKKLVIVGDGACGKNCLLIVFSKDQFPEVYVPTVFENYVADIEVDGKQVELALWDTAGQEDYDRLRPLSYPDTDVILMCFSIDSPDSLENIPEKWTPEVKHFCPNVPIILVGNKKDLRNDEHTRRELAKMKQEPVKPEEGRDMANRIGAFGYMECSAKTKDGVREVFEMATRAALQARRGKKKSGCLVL

| Substance | binding [1] | binding [2] | other results |
| --- | --- | --- | --- |
| HA-tagged ERK1 (from UniProt P27361 1-379) | no binding | binds | – |
| HA/RhoA N19 (from UniProt P61586 1-193) | – | – | binding (FLAG/Smurf1-WT (human)): binds; binding [3]: binds |
| HA-tagged ERK2 (from UniProt P28482 1-360) | no binding | binds | – |
| endogenous Smurf1 (MCF-7) (from UniProt Q9HCE7 1-757) | – | – | binding (Flag-tagged ERK2 (human)): binds |
| RhoA N19 (used in the GST pull-down) (from UniProt P61586 1-193) | – | – | binding [4]: binds |

— article PMC9163791
